The supplement of paper PMC8728848
The other results are listed elsewhere or left out.

Key:
Assay in all cases: glycan array binding signal (z-score within array); higher = stronger binding
Settings in all cases: glycan notation: IUPAC condensed, linker removed
[1] = molecular target: Fuc(a1-3)[Gal(b1-4)]GlcNAc(b1-3)Gal(b1-4)[Fuc(a1-3)]GlcNAc
Outline: (§1)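 Glycan array binding is given as a within-array Z-score, which can be read as non-binding when negative. The arrays, 3228 of them, came from the Consortium for Functional Glycomics database and were retained only where the protein sequence was available. Z-scores were averaged across arrays of the same protein sequence at different concentrations or buffers and across linkers.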

[2] = molecular target: Fuc(a1-3)[Gal(b1-4)]GlcNAc(b1-3)Gal(b1-4)[Fuc(a1-3)]GlcNAc(b1-3)Gal(b1-4)[Fuc(a1-3)]GlcNAc
Outline: as §1

[3] = molecular target: Fuc(a1-3)[Gal(b1-4)]GlcNAc(b1-3)GalNAc
Outline: as §1

[4] = molecular target: Fuc(a1-3)[Gal(b1-4)]GlcNAc(b1-6)GalNAc
Outline: as §1

[5] = molecular target: Fuc(a1-3)[Gal(b1-4)]GlcNAc(b1-6)[Gal(b1-3)GlcNAc(b1-3)]Gal(b1-4)Glc
Outline: as §1

[6] = molecular target: Fuc(a1-3)[Gal(b1-4)]GlcNAc6S
Outline: as §1

[7] = molecular target: Fuc(a1-3)[Gal3S(b1-4)]Glc
Outline: as §1

[8] = molecular target: Fuc(a1-3)[Gal3S(b1-4)]GlcNAc
Outline: as §1

[9] = molecular target: Fuc(a1-3)[Gal3S(b1-4)]GlcNAc6S
Outline: as §1

[10] = molecular target: Fuc(a1-3)[GalNAc(b1-4)]GlcNAc
Outline: as §1

[11] = molecular target: Fuc(a1-3)[GalNAc(b1-4)]GlcNAc6S
Outline: as §1

Fuc(a1-4)GlcNAc = molecular target: Fuc(a1-4)GlcNAc
Outline: as §1

Fuc(b1-3)GlcNAc = molecular target: Fuc(b1-3)GlcNAc
Outline: as §1

Gal(a1-2)Gal = molecular target: Gal(a1-2)Gal
Outline: as §1

Gal(a1-3)Gal = molecular target: Gal(a1-3)Gal
Outline: as §1

Gal(a1-3)Gal(b1-3)GlcNAc = molecular target: Gal(a1-3)Gal(b1-3)GlcNAc
Outline: as §1

[12] = molecular target: Gal(a1-3)Gal(b1-3)GlcNAc(b1-2)Man
Outline: as §1

[13] = molecular target: Gal(a1-3)Gal(b1-3)GlcNAc(b1-2)Man(a1-3)[Gal(a1-3)Gal(b1-3)GlcNAc(b1-2)Man(a1-6)]Man(b1-4)GlcNAc(b1-4)GlcNAc
Outline: as §1

[14] = molecular target: Gal(a1-3)Gal(b1-3)GlcNAc(b1-3)GalNAc
Outline: as §1

[15] = molecular target: Gal(a1-3)Gal(b1-3)GlcNAc(b1-6)GalNAc
Outline: as §1

[16] = molecular target: Gal(a1-3)Gal(b1-3)[Fuc(a1-4)]GlcNAc(b1-2)Man(a1-3)[Gal(a1-3)Gal(b1-3)[Fuc(a1-4)]GlcNAc(b1-2)Man(a1-6)]Man(b1-4)GlcNAc(b1-4)GlcNAc
Outline: as §1

Gal(a1-3)Gal(b1-4)Glc = molecular target: Gal(a1-3)Gal(b1-4)Glc
Outline: as §1

Gal(a1-3)Gal(b1-4)GlcNAc = molecular target: Gal(a1-3)Gal(b1-4)GlcNAc
Outline: as §1

[17] = molecular target: Gal(a1-3)Gal(b1-4)GlcNAc(b1-2)Man
Outline: as §1

[18] = molecular target: Gal(a1-3)Gal(b1-4)GlcNAc(b1-2)Man(a1-3)[Gal(a1-3)Gal(b1-4)GlcNAc(b1-2)Man(a1-6)]Man(b1-4)GlcNAc(b1-4)GlcNAc
Outline: as §1

[19] = molecular target: Gal(a1-3)Gal(b1-4)GlcNAc(b1-3)GalNAc
Outline: as §1

[20] = molecular target: Gal(a1-3)Gal(b1-4)GlcNAc(b1-6)GalNAc
Outline: as §1

[21] = molecular target: Gal(a1-3)Gal(b1-4)[Fuc(a1-3)]GlcNAc
Outline: as §1

[22] = molecular target: Gal(a1-3)Gal(b1-4)[Fuc(a1-3)]GlcNAc(b1-2)Man(a1-3)[Gal(a1-3)Gal(b1-4)[Fuc(a1-3)]GlcNAc(b1-2)Man(a1-6)]Man(b1-4)GlcNAc(b1-4)GlcNAc
Outline: as §1

Gal(a1-3)GalNAc = molecular target: Gal(a1-3)GalNAc
Outline: as §1

[23] = molecular target: Gal(a1-3)[Gal(a1-4)]Gal(b1-4)GlcNAc
Outline: as §1

[24] = molecular target: Gal(a1-4)Gal(b1-3)GlcNAc(b1-2)Man(a1-3)[Gal(a1-4)Gal(b1-3)GlcNAc(b1-2)Man(a1-6)]Man(b1-4)GlcNAc(b1-4)GlcNAc
Outline: as §1

Gal(a1-4)Gal(b1-4)Glc = molecular target: Gal(a1-4)Gal(b1-4)Glc
Outline: as §1

Gal(a1-4)Gal(b1-4)GlcNAc = molecular target: Gal(a1-4)Gal(b1-4)GlcNAc
Outline: as §1

[25] = molecular target: Gal(a1-4)Gal(b1-4)GlcNAc(b1-2)Man(a1-3)[Gal(a1-4)Gal(b1-4)GlcNAc(b1-2)Man(a1-6)]Man(b1-4)GlcNAc(b1-4)GlcNAc
Outline: as §1

[26] = molecular target: Gal(a1-4)Gal(b1-4)GlcNAc(b1-3)Gal(b1-4)Glc
Outline: as §1

Gal(a1-4)GlcNAc = molecular target: Gal(a1-4)GlcNAc
Outline: as §1

Gal(a1-6)Glc = molecular target: Gal(a1-6)Glc
Outline: as §1

B1: PNGase F (Flavobacterium meningosepticum) (protein)
chain: GIPAPADNTVNIKTFDKVKNAFGDGLSQSAEGTFTFPADVTAVKTIKMFIKNECPNKTCDEWDRYANVYVKNKTTGEWYEIGRFITPYWVGTEKLPRGLEIDVTDFKSLLSGNTELKIYTETWLAKGREYSVDFDIVYGTPDYKYSAVVPVVQYNKSSIDGVPYGKAHTLALKKNIQLPTNTEKAYLRTTISGWGHAKPYDAGSRGCAEWCFRTHTIAINNSNTFQHQLGALGCSANPINNQSPGNWTPDRAGWCPGMAVPTRIDVLNNSLIGSTFSYEYKFQNWTNNGTNGDAFYAISSFVIAKSNTPISAPVVTNLDPHHHHHH
Q: How did the “glycan array binding signal (z-score)” value [1] turn out when B1 was run?
A: The value was 0.008.

Q: And the “glycan array binding signal (z-score)” value [2]?
A: Its value is -0.298.

Q: What about the “glycan array binding signal (z-score)” value [3] of the same binder?
A: The value was -0.16.

Q: And the “glycan array binding signal (z-score)” value [4]?
A: Its value is -0.166.

Q: What about the “glycan array binding signal (z-score)” value [5] of the same binder?
A: Its value is -0.308.

Q: What about the “glycan array binding signal (z-score)” value [6] of the same binder?
A: The value was 0.583.

Q: And the “glycan array binding signal (z-score)” value [7]?
A: The value was 0.12.

Q: What about the “glycan array binding signal (z-score)” value [8] of the same binder?
A: The value was 0.04.

Q: What about the “glycan array binding signal (z-score)” value [9] of the same binder?
A: The value was -0.123.

Q: And the “glycan array binding signal (z-score)” value [10]?
A: Its value is 0.369.

Q: What about the “glycan array binding signal (z-score)” value [11] of the same binder?
A: The value was -0.207.

Q: And the “glycan array binding signal (z-score)” value (Fuc(a1-4)GlcNAc)?
A: The value was 2.72.

Q: What about the “glycan array binding signal (z-score)” value (Fuc(b1-3)GlcNAc) of the same binder?
A: The value was 0.462.

Q: What about the “glycan array binding signal (z-score)” value (Gal(a1-2)Gal) of the same binder?
A: The value was 0.486.

Q: And the “glycan array binding signal (z-score)” value (Gal(a1-3)Gal)?
A: The value was 0.537.

Q: What about the “glycan array binding signal (z-score)” value (Gal(a1-3)Gal(b1-3)GlcNAc) of the same binder?
A: Its value is -0.208.

Q: What about the “glycan array binding signal (z-score)” value [12] of the same binder?
A: The value was -0.138.

Q: What about the “glycan array binding signal (z-score)” value [13] of the same binder?
A: The value was 0.192.

Q: And the “glycan array binding signal (z-score)” value [14]?
A: The value was 0.102.

Q: And the “glycan array binding signal (z-score)” value [15]?
A: The value was -0.276.

Q: What about the “glycan array binding signal (z-score)” value [16] of the same binder?
A: Its value is 0.401.

Q: What about the “glycan array binding signal (z-score)” value (Gal(a1-3)Gal(b1-4)Glc) of the same binder?
A: Its value is 0.116.

Q: And the “glycan array binding signal (z-score)” value (Gal(a1-3)Gal(b1-4)GlcNAc)?
A: Its value is -0.277.

Q: What about the “glycan array binding signal (z-score)” value [17] of the same binder?
A: Its value is 0.524.

Q: And the “glycan array binding signal (z-score)” value [18]?
A: The value was -0.134.

Q: And the “glycan array binding signal (z-score)” value [19]?
A: Its value is -0.274.

Q: And the “glycan array binding signal (z-score)” value [20]?
A: The value was -0.319.

Q: And the “glycan array binding signal (z-score)” value [21]?
A: Its value is -0.282.

Q: What about the “glycan array binding signal (z-score)” value [22] of the same binder?
A: The value was 0.101.

Q: What about the “glycan array binding signal (z-score)” value (Gal(a1-3)GalNAc) of the same binder?
A: The value was -0.073.

Q: What about the “glycan array binding signal (z-score)” value [23] of the same binder?
A: The value was -0.334.

Q: And the “glycan array binding signal (z-score)” value [24]?
A: The value was -0.495.

Q: And the “glycan array binding signal (z-score)” value (Gal(a1-4)Gal(b1-4)Glc)?
A: Its value is 0.612.

Q: What about the “glycan array binding signal (z-score)” value (Gal(a1-4)Gal(b1-4)GlcNAc) of the same binder?
A: Its value is -0.114.

Q: And the “glycan array binding signal (z-score)” value [25]?
A: Its value is -0.234.

Q: And the “glycan array binding signal (z-score)” value [26]?
A: Its value is 0.115.

Q: And the “glycan array binding signal (z-score)” value (Gal(a1-4)GlcNAc)?
A: The value was 0.72.

Q: And the “glycan array binding signal (z-score)” value (Gal(a1-6)Glc)?
A: Its value is 0.306.
